# According to the supplement of paper PMC8728848:
# This is one part of the list.
# B1: GS13455A-bfa-343-25-343 (Bacteroides fragilis) (protein)
# chain: KDEIQIVDQDTSWQMDNKYIEEDIREQLGIDPFTDLVYLGYYGNPYTQLEAINDLVNTTLVGKNELSFKVKVTKPYKEDIKVNLMKEDKLVTDFPEMAEGIPLFPSENCTFEGGVLKAGELETTVKLTLKDVEKLNNLSGYVMAIKLTMEGSHEHLAIARTRSSYFVKLNLSIRLDNIDSSNKKIEGKGFNKEISFKSDIRPDKLGSLNDGNFTANNWYTSNANNYLTIILPEKQSLKGFRLDTNTSPSGSYMLKSCRVMVETPDGNWVNHGVFDRKSMDGIAYISFKKPVECTKVRFENMMAFNGRFSVDVNEVTAFR
# Columns and labels:
# Experiment in all cases: glycan array binding signal (z-score within array); higher = stronger binding
# Details in all cases: glycan notation: IUPAC condensed, linker removed
# [1] = target: Neu5Ac(a2-6)Gal(b1-4)GlcNAc(b1-2)Man(a1-3)[Neu5Ac(a2-3)Gal(b1-4)GlcNAc(b1-2)Man(a1-6)]Man(b1-4)GlcNAc(b1-4)GlcNAc
# How it was run: (§1)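 Glycan array binding is given as a within-array Z-score, which can be read as non-binding when negative. The arrays, 3228 of them, came from the Consortium for Functional Glycomics database and were retained only where the protein sequence was available. Z-scores were averaged across arrays of the same protein sequence at different concentrations or buffers and across linkers.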
# [2] = target: Neu5Ac(a2-6)Gal(b1-4)GlcNAc(b1-2)Man(a1-3)[Neu5Ac(a2-6)Gal(b1-4)GlcNAc(b1-2)Man(a1-6)]Man(b1-4)GlcNAc(b1-4)GlcNAc
# How it was run: as §1
# [3] = target: Neu5Ac(a2-6)Gal(b1-4)GlcNAc(b1-2)Man(a1-3)[Neu5Ac(a2-6)Gal(b1-4)GlcNAc(b1-2)Man(a1-6)]Man(b1-4)GlcNAc(b1-4)[Fuc(a1-6)]GlcNAc
# How it was run: as §1
# [4] = target: Neu5Ac(a2-6)Gal(b1-4)GlcNAc(b1-2)Man(a1-6)Man(b1-4)GlcNAc(b1-4)GlcNAc
# How it was run: as §1
# [5] = target: Neu5Ac(a2-6)Gal(b1-4)GlcNAc(b1-2)Man(a1-6)[Gal(b1-4)GlcNAc(b1-2)Man(a1-3)]Man(b1-4)GlcNAc(b1-4)GlcNAc
# How it was run: as §1
# [6] = target: Neu5Ac(a2-6)Gal(b1-4)GlcNAc(b1-2)Man(a1-6)[GlcNAc(b1-2)Man(a1-3)]Man(b1-4)GlcNAc(b1-4)GlcNAc
# How it was run: as §1
# [7] = target: Neu5Ac(a2-6)Gal(b1-4)GlcNAc(b1-2)Man(a1-6)[Man(a1-3)]Man(b1-4)GlcNAc(b1-4)GlcNAc
# How it was run: as §1
# [8] = target: Neu5Ac(a2-6)Gal(b1-4)GlcNAc(b1-2)[Neu5Ac(a2-6)Gal(b1-4)GlcNAc(b1-4)]Man(a1-3)[GlcNAc(b1-4)][Neu5Ac(a2-6)Gal(b1-4)GlcNAc(b1-2)[Neu5Ac(a2-6)Gal(b1-4)GlcNAc(b1-6)]Man(a1-6)]Man(b1-4)GlcNAc(b1-4)GlcNAc
# How it was run: as §1
# [9] = target: Neu5Ac(a2-6)Gal(b1-4)GlcNAc(b1-2)[Neu5Ac(a2-6)Gal(b1-4)GlcNAc(b1-4)]Man(a1-3)[GlcNAc(b1-4)][Neu5Ac(a2-6)Gal(b1-4)GlcNAc(b1-4)Man(a1-6)]Man(b1-4)GlcNAc(b1-4)GlcNAc
# How it was run: as §1
# [10] = target: Neu5Ac(a2-6)Gal(b1-4)GlcNAc(b1-2)[Neu5Ac(a2-6)Gal(b1-4)GlcNAc(b1-6)]Man(a1-6)[Neu5Ac(a2-6)Gal(b1-4)GlcNAc(b1-2)Man(a1-3)][GlcNAc(b1-4)]Man(b1-4)GlcNAc(b1-4)GlcNAc
# How it was run: as §1
# [11] = target: Neu5Ac(a2-6)Gal(b1-4)GlcNAc(b1-3)Gal(b1-3)GlcNAc
# How it was run: as §1
# [12] = target: Neu5Ac(a2-6)Gal(b1-4)GlcNAc(b1-3)Gal(b1-4)GlcNAc
# How it was run: as §1
# [13] = target: Neu5Ac(a2-6)Gal(b1-4)GlcNAc(b1-3)Gal(b1-4)GlcNAc(b1-2)Man(a1-3)[Neu5Ac(a2-6)Gal(b1-4)GlcNAc(b1-3)Gal(b1-4)GlcNAc(b1-2)Man(a1-6)]GalNAc
# How it was run: as §1
# [14] = target: Neu5Ac(a2-6)Gal(b1-4)GlcNAc(b1-3)Gal(b1-4)GlcNAc(b1-3)Gal(b1-4)GlcNAc
# How it was run: as §1
# [15] = target: Neu5Ac(a2-6)Gal(b1-4)GlcNAc(b1-3)Gal(b1-4)GlcNAc(b1-3)Gal(b1-4)GlcNAc(b1-2)Man(a1-3)[Neu5Ac(a2-6)Gal(b1-4)GlcNAc(b1-3)Gal(b1-4)GlcNAc(b1-3)Gal(b1-4)GlcNAc(b1-2)Man(a1-6)]GalNAc
# How it was run: as §1
# [16] = target: Neu5Ac(a2-6)Gal(b1-4)GlcNAc(b1-3)Gal(b1-4)GlcNAc(b1-3)GalNAc
# How it was run: as §1
# [17] = target: Neu5Ac(a2-6)Gal(b1-4)GlcNAc(b1-3)Gal(b1-4)GlcNAc(b1-3)[Neu5Ac(a2-6)Gal(b1-4)GlcNAc(b1-3)Gal(b1-4)GlcNAc(b1-6)]GalNAc
# How it was run: as §1
# [18] = target: Neu5Ac(a2-6)Gal(b1-4)GlcNAc(b1-3)Gal(b1-4)GlcNAc(b1-6)[Gal(b1-3)]GalNAc
# How it was run: as §1
# [19] = target: Neu5Ac(a2-6)Gal(b1-4)GlcNAc(b1-3)Gal(b1-4)[Fuc(a1-3)]GlcNAc(b1-3)Gal(b1-4)[Fuc(a1-3)]GlcNAc
# How it was run: as §1
# [20] = target: Neu5Ac(a2-6)Gal(b1-4)GlcNAc(b1-3)GalNAc
# How it was run: as §1
# [21] = target: Neu5Ac(a2-6)Gal(b1-4)GlcNAc(b1-3)[Neu5Ac(a2-6)Gal(b1-4)GlcNAc(b1-6)]GalNAc
# How it was run: as §1
# [22] = target: Neu5Ac(a2-6)Gal(b1-4)GlcNAc(b1-6)GalNAc
# How it was run: as §1
# [23] = target: Neu5Ac(a2-6)Gal(b1-4)GlcNAc(b1-6)[Gal(b1-3)GlcNAc(b1-3)]Gal(b1-4)Glc
# How it was run: as §1
# [24] = target: Neu5Ac(a2-6)Gal(b1-4)GlcNAc(b1-6)[Gal(b1-3)]GalNAc
# How it was run: as §1
# [25] = target: Neu5Ac(a2-6)Gal(b1-4)GlcNAc6S
# How it was run: as §1
# [26] = target: Neu5Ac(a2-6)GalNAc
# How it was run: as §1
# [27] = target: Neu5Ac(a2-6)GalNAc(b1-4)GlcNAc
# How it was run: as §1
# [28] = target: Neu5Ac(a2-6)GalNAc(b1-4)GlcNAc6S
# How it was run: as §1
# [29] = target: Neu5Ac(a2-6)GlcNAc(b1-4)GlcNAc
# How it was run: as §1
# [30] = target: Neu5Ac(a2-6)GlcNAc(b1-4)GlcNAc(b1-4)GlcNAc
# How it was run: as §1
binder,measurement,setting,value
B1,glycan array binding signal (z-score),[1],-0.17
same,glycan array binding signal (z-score),[2],-0.361
same,glycan array binding signal (z-score),[3],-0.034
same,glycan array binding signal (z-score),[4],-0.353
same,glycan array binding signal (z-score),[5],-0.3
same,glycan array binding signal (z-score),[6],-0.541
same,glycan array binding signal (z-score),[7],-0.043
same,glycan array binding signal (z-score),[8],-0.595
same,glycan array binding signal (z-score),[9],-0.261
same,glycan array binding signal (z-score),[10],-0.774
same,glycan array binding signal (z-score),[11],-0.353
same,glycan array binding signal (z-score),[12],-0.228
same,glycan array binding signal (z-score),[13],0.427
same,glycan array binding signal (z-score),[14],-0.765
same,glycan array binding signal (z-score),[15],0.955
same,glycan array binding signal (z-score),[16],-0.338
same,glycan array binding signal (z-score),[17],-0.082
same,glycan array binding signal (z-score),[18],-0.578
same,glycan array binding signal (z-score),[19],0.113
same,glycan array binding signal (z-score),[20],0.453
same,glycan array binding signal (z-score),[21],-0.978
same,glycan array binding signal (z-score),[22],-0.42
same,glycan array binding signal (z-score),[23],-0.866
same,glycan array binding signal (z-score),[24],-0.662
same,glycan array binding signal (z-score),[25],-0.614
same,glycan array binding signal (z-score),[26],-0.397
same,glycan array binding signal (z-score),[27],-0.322
same,glycan array binding signal (z-score),[28],-0.331
same,glycan array binding signal (z-score),[29],-0.372
same,glycan array binding signal (z-score),[30],0.055
